In the supplement of paper PMC10369915:
Some of the results follow. No stated cut-off is given here; in the data, active = 3.2 or more and inactive = the rest. Only a few entries rise above the background.

Key:
Assay in all cases: enrichment score (SH2-bound / input frequency) (ratio); bacterial display of known human phosphotyrosine sites (pTyr-Var adds point mutants) read by sequencing; higher = stronger binding; tyrosines were phosphorylated by kinases first
Settings in all cases: peptide library: pTyr-Var
[1] = molecular target: SHP2 C-SH2 domain E139D
[2] = molecular target: SHP2 C-SH2 domain wild-type
[3] = molecular target: SHP2 N-SH2 domain L43F
[4] = molecular target: SHP2 N-SH2 domain T42A
[5] = molecular target: SHP2 N-SH2 domain T52S
[6] = molecular target: SHP2 N-SH2 domain wild-type
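Further: displayed peptides selected on beads carrying the immobilized SH2 domain, with library peptides lacking any tyrosine serving as negative controls.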

With SRDDDYETIAM [NPY1R_Y347] the enrichment score [1] was inactive: 0.617, the enrichment score [2] was inactive: 0.534 and the enrichment score [3] was inactive: 0.428. The enrichment score [4] was inactive: 0.52, the enrichment score [5] was inactive: 0.459 and the enrichment score [6] was inactive: 0.684.

In the case of LGKLIYPVGFW [NTHL1_Y177], the enrichment score [1] is reported as inactive: 2.56, the enrichment score [2] is reported as inactive: 2.46 and the enrichment score [3] is reported as inactive: 2.65. For the same binder, the enrichment score [4] was inactive: 2.12, the enrichment score [5] was inactive: 2.58 and the enrichment score [6] was inactive: 2.28.

For RRRLIYRCQVG [NR2E3_Y81], the enrichment score [1] was inactive: 0.249, the enrichment score [2] was inactive: 0.336 and the enrichment score [3] was inactive: 0.224. The enrichment score [4] was inactive: 0.22, the enrichment score [5] was inactive: 0.193 and the enrichment score [6] was inactive: 0.207.

With LSIDRYHAIVY [NPSR1_Y147] the enrichment score [1] was inactive: 1.04, the enrichment score [2] was inactive: 1.3 and the enrichment score [3] was inactive: 1.18. The enrichment score [4] was inactive: 1.36, the enrichment score [5] was inactive: 1.4 and the enrichment score [6] was inactive: 1.2.

With MPQNEYIELHR [NSA2_Y6] the enrichment score [1] was inactive: 0.823, the enrichment score [2] was inactive: 0.824 and the enrichment score [3] was inactive: 0.883. For the same binder, the enrichment score [4] was inactive: 0.997, the enrichment score [5] was inactive: 0.867 and the enrichment score [6] was inactive: 0.902.

IKNPQYFSDAC [NTRK1_Y496_E492K] was tested, and the enrichment score [1] was inactive: 0.936, the enrichment score [2] was inactive: 0.855 and the enrichment score [3] was inactive: 0.694. For the same binder, the enrichment score [4] was inactive: 0.779, the enrichment score [5] was inactive: 0.938 and the enrichment score [6] was inactive: 0.975.

For AACQHYGVRTC [NR4A2_Y275], the enrichment score [1] was inactive: 1.21, the enrichment score [2] was inactive: 1.25 and the enrichment score [3] was inactive: 1.08. For the same binder, the enrichment score [4] was inactive: 1.08, the enrichment score [5] was inactive: 1.07 and the enrichment score [6] was inactive: 1.19.

INMKKYCKKDF [NTN1_Y490_YF] was tested, and the enrichment score [1] was inactive: 1.72, the enrichment score [2] was inactive: 1.75 and the enrichment score [3] was inactive: 1.74. For the same binder, the enrichment score [4] was inactive: 1.58, the enrichment score [5] was inactive: 1.7 and the enrichment score [6] was inactive: 1.91.

For QRRLIYRCQVG [NR2E3_Y81_R76Q], the enrichment score [1] was inactive: 0.273, the enrichment score [2] was inactive: 0.202 and the enrichment score [3] was inactive: 0.261. The enrichment score [4] was inactive: 0.204, the enrichment score [5] was inactive: 0.253 and the enrichment score [6] was inactive: 0.22.

In the case of RARIRYAQEHD [NSD1_Y1987], the enrichment score [1] is reported as inactive: 0.215, the enrichment score [2] is reported as inactive: 0.229 and the enrichment score [3] is reported as inactive: 0.326. The enrichment score [4] was inactive: 0.37, the enrichment score [5] was inactive: 0.247 and the enrichment score [6] was inactive: 0.262.

In the case of KVASVYEAPGF [NT5C_Y65], the enrichment score [1] is reported as inactive: 0.865, the enrichment score [2] is reported as inactive: 0.61 and the enrichment score [3] is reported as inactive: 0.779. For the same binder, the enrichment score [4] was inactive: 0.53, the enrichment score [5] was inactive: 0.626 and the enrichment score [6] was inactive: 0.834.

In the case of HQKKPYCHTHN [NRAP_Y53_A56T], the enrichment score [1] is reported as active: 6.43, the enrichment score [2] is reported as active: 4.73 and the enrichment score [3] is reported as active: 6.52. For the same binder, the enrichment score [4] was active: 5.16, the enrichment score [5] was active: 5.38 and the enrichment score [6] was active: 4.54.

With LSPPVYLTNEW [NRK_Y885_I880L] the enrichment score [1] was inactive: 1.24, the enrichment score [2] was inactive: 1.12 and the enrichment score [3] was inactive: 1.24. The enrichment score [4] was inactive: 1.6, the enrichment score [5] was inactive: 1.58 and the enrichment score [6] was inactive: 1.15.

WRRLIYRCQVG [NR2E3_Y81_R76W] was tested, and the enrichment score [1] was inactive: 0.243, the enrichment score [2] was inactive: 0.267 and the enrichment score [3] was inactive: 0.284. The enrichment score [4] was inactive: 0.336, the enrichment score [5] was inactive: 0.253 and the enrichment score [6] was inactive: 0.359.

METKGYQSLPE [NR3C2_Y6_H7Q] was tested, and the enrichment score [1] was inactive: 0.699, the enrichment score [2] was inactive: 0.554 and the enrichment score [3] was inactive: 0.874. The enrichment score [4] was inactive: 0.653, the enrichment score [5] was inactive: 0.603 and the enrichment score [6] was inactive: 0.655.

For DVMDLYKTLRG [NR3C1_Y30_F29L], the enrichment score [1] was inactive: 0.874, the enrichment score [2] was inactive: 0.808 and the enrichment score [3] was inactive: 0.899. The enrichment score [4] was inactive: 0.798, the enrichment score [5] was inactive: 0.782 and the enrichment score [6] was inactive: 1.

For MSRDIYSTDYY [NTRK1_Y676], the enrichment score [1] was inactive: 0.65, the enrichment score [2] was inactive: 0.507 and the enrichment score [3] was inactive: 0.905. For the same binder, the enrichment score [4] was inactive: 0.486, the enrichment score [5] was inactive: 0.647 and the enrichment score [6] was inactive: 0.53.

With LMVFEYMRHGN [NTRK1_Y591_D596N] the enrichment score [1] was active: 3.21, the enrichment score [2] was inactive: 2.16 and the enrichment score [3] was inactive: 2.52. The enrichment score [4] was inactive: 1.96, the enrichment score [5] was inactive: 2.88 and the enrichment score [6] was inactive: 2.36.

In the case of AEQEEYSAMRD [NRAS_Y64_G60E], the enrichment score [1] is reported as inactive: 0.536, the enrichment score [2] is reported as inactive: 0.36 and the enrichment score [3] is reported as inactive: 0.492. The enrichment score [4] was inactive: 0.406, the enrichment score [5] was inactive: 0.445 and the enrichment score [6] was inactive: 0.55.
